Test results reported in patent US20230045262A1 (Hoffmann-La Roche, published 2023).

Assays:
[1] = target: T1, human 4-1BB on cells (activated human T cells; HeLa-hu4-1BB-NFκB-luc clone 26; Jurkat-hu4-1BB-NFκB-luc2) (human, UniProt Q07011 24-255); test: flow cytometry on activated human CD4+ T cells (CD4 binding)
T1 construct: also called CD137; cell-expressed 4-1BB

[2] = target: T2, human CD19 on cells (primary human B cells; WSU-DLCL2) (human, UniProt P15391 20-556); test: flow cytometry on primary human B cells (B cell binding)
T2 construct: also called CD19+ human B cells; CD19+ WSU tumor cells
T2 sequence: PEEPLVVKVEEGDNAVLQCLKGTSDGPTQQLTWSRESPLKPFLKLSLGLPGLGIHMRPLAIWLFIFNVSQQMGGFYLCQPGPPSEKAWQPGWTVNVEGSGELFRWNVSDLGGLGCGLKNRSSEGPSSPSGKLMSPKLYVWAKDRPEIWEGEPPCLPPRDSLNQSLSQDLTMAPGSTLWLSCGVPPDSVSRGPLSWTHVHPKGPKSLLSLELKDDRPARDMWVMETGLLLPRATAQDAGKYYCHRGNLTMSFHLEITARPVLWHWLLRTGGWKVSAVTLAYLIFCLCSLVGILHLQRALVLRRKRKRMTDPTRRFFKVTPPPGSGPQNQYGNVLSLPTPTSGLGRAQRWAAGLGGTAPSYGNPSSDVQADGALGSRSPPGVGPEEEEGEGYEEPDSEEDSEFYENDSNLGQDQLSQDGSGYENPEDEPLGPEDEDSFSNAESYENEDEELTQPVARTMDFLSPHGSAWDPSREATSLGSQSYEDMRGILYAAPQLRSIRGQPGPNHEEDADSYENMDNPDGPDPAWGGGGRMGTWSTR

[3] = target: T1, human 4-1BB on cells (activated human T …); test: cell-based or functional assay
[4] = target: T1, human 4-1BB on cells (activated human T …); test: flow cytometry on activated human CD8+ T cells (CD8 binding)
[5] = target: T2, human CD19 on cells (primary human B …); test: flow cytometry on WSU-DLCL2 cells (WSU binding)

UniProt Q07011, sequence (Q07011 24-255 limits assumed): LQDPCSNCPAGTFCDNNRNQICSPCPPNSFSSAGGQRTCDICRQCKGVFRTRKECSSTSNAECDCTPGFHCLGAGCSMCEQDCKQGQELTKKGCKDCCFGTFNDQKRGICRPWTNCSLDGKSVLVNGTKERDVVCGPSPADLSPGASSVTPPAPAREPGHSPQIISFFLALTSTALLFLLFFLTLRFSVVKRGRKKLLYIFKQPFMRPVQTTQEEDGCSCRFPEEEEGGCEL

B1: CD19(2B11)×4-1BBL (other)
chain 1: QVQLVQSGAEVKKPGASVKVSCKASGYTFTDYIMHWVRQAPGQGLEWMGYINPYNDGSKYTEKFQGRVTMTSDTSISTAYMELSRLRSDDTAVYYCARGTYYYGPQLFDYWGQGTTVTVSS
chain 2: DIVMTQTPLSLSVTPGQPASISCKSSQSLETSTGTTYLNWYLQKPGQSPQLLIYRVSKRFSGVPDRFSGSGSGTDFTLKISRVEAEDVGVYYCLQLLEDPYTFGQGTKLEIK
chain 3: [about 200 residues not shown]
[1]
  EC50: 0.37 nM
[2]
  EC50: 0.37 nM
[3]
  EC50 of IFN-γ production by activated human PBMCs (ELISA): 0.03 nM
[4]
  EC50: 0.9 nM
[5]
  EC50: 0.3 nM
